Measurements reported in the supplement of paper PMC4166925.
± gives the standard deviation of the averaged measurements. In all, about 33,000 sequences were measured (“E-score (dimensionless, -0.5 to 0.5)”: median about -0.049, highest 2% from about 0.37 on). Some of the results follow.

system: T1, PmTbr T-box DNA-binding domain (GST fusion); assay: PBM E-score of 8-mer (E-score (dimensionless, -0.5 to 0.5)); Tbr is Tbrain of the sea star Patiria miniata (Pm) or the sea urchin Strongylocentrotus purpuratus (Sp); higher = stronger binding preference; most listed sequences are background and not binding sites; settings: the construct has about 5 more residues each side
T1 sequence: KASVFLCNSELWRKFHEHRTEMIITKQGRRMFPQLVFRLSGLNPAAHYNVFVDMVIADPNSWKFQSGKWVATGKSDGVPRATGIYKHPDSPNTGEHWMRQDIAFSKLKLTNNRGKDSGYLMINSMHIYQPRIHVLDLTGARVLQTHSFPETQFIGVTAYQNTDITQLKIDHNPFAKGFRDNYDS
Outline: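 Primer extension turned Universal Agilent oligonucleotide arrays double-stranded. They were incubated with 200 nM protein in PBS (pH 7.5); the protein was a GST-fused Tbr T-box DNA-binding domain expressed in BL21 E. coli at 20 °C and purified on glutathione. Every ungapped 8-mer was scored from the scanned, quantified probe intensities, and the Universal PBM Analysis Suite gave each an enrichment E-score averaged over duplicate arrays.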

Row | Sequence | PBM E-score of 8-mer
1 | ACTGTCCA | -0.0882 ± 0.041
2 | CTTGTCGA | 0.182 ± 0.013
3 | AGTGGTCA | 0.0999 ± 0.044
4 | ATGAGGTC | -0.00428 ± 0.033
5 | CAAACGAA | -0.00967 ± 0.022
6 | CCACCCGG | 0.0506 ± 0.048
7 | AACAAACT | -0.102 ± 0.032
8 | ACTCAAAG | -0.0361 ± 0.027
9 | CCTCGACC | -0.0573 ± 0.087
10 | CTCAGCGA | 0.15 ± 0.068
11 | AGCAAGCC | -0.179 ± 0.019
12 | CCGGATGA | -0.278 ± 0.0076
13 | AAGCGTGA | 0.401 ± 0.018
14 | ACATGCAG | -0.0628 ± 0.047
15 | CTACCGAG | -0.0515 ± 0.0037
16 | CTTTAATA | -0.23 ± 0.028
17 | AGACAAAC | 0.00019 ± 0.011
18 | CGTCGAAC | -0.0874 ± 0.071
19 | CTAGTGGC | -0.0119 ± 0.017
20 | AACAGGTA | 0.126 ± 0.015
21 | AATAGGCC | -0.231 ± 0.066
22 | CAGATCCG | -0.0367 ± 0.13
23 | AAATAGCC | -0.0974 ± 0.016
24 | CACAACTG | 0.225 ± 0.0095
25 | GGCAGCAC | 0.165 ± 0.059

Row | Sequence | PBM E-score of 8-mer
26 | CTTGGAAC | -0.257 ± 0.017
27 | GGTCCGGA | -0.105 ± 0.037
28 | CGATGTTC | 0.0373 ± 0.08
29 | GCGGCGCA | -0.0677 ± 0.08
30 | ATTGGTGC | 0.256 ± 0.015
31 | GAACAAGA | -0.0306 ± 0.044
32 | CTATACAA | -0.216 ± 0.054
33 | TAATAATA | -0.151 ± 0.11
34 | CGGAGCGC | 0.108 ± 0.013
35 | GTTCTGAA | -0.247 ± 0.048
36 | TAGGCTCA | 0.00615 ± 0.049
37 | CAGCACCA | 0.0936 ± 0.032
38 | TCTTGACA | 0.316 ± 0.012
39 | ACTAAGTG | 0.254 ± 0.016
40 | CGGTCTAA | -0.146 ± 0.036
41 | CGGGCGTA | -0.0486 ± 0.018
42 | GAGGAGCA | -0.318 ± 0.016
43 | ATCGTTTC | 0.134 ± 0.0054
44 | CCAGAACA | -0.0746 ± 0.061
45 | GCAAAGCC | -0.0731 ± 0.023
46 | AAAACTAG | -0.252 ± 0.11
47 | CATTATCC | -0.0633 ± 0.044
48 | CACGGTAC | 0.00264 ± 0.0099
49 | GCGTTCTA | -0.0437 ± 0.035
50 | AAAGATGG | -0.148 ± 0.014

Row | Sequence | PBM E-score of 8-mer
51 | GAAGTATA | 0.0277 ± 0.11
52 | GAGCATGA | 0.14 ± 0.0078
53 | CCTGCACC | 0.153 ± 0.02
54 | CAATCTGA | -0.242 ± 0.054
55 | CAGCTCAC | 0.14 ± 0.0033
56 | CTTTGTCC | 0.109 ± 0.0064
57 | ACCCCGCC | 0.119 ± 0.051
58 | ACCAACAG | 0.127 ± 0.018
59 | CCCGCCCA | 0.0932 ± 0.075
60 | AACCTGGT | 0.025 ± 0.064
61 | ACTAGCCT | -0.0251 ± 0.036
62 | ACCAGGAA | -0.145 ± 0.072
63 | ACACCCCT | 0.4 ± 0.027
64 | GCGTACCA | -0.168 ± 0.014
65 | AGTGGCGC | 0.242 ± 0.02
66 | GGCAGACC | -0.184 ± 0.061
67 | AGGGTGTG | 0.43 ± 0.027
68 | GAGTCGGC | -0.126 ± 0.033
69 | ACCTTCGT | 0.268 ± 0.026
70 | CGTCAGAA | 0.0686 ± 0.037
71 | CTCTTTCA | 0.114 ± 0.054
72 | CTCCATGC | -0.036 ± 0.11
73 | AAATGCTT | -0.0118 ± 0.11
74 | AATCCGCC | -0.0827 ± 0.037
75 | CCGATCGG | 0.0432 ± 0.047

Row | Sequence | PBM E-score of 8-mer
76 | TCAGCACA | 0.179 ± 0.015
77 | ACGGATGA | -0.141 ± 0.037
78 | ATCCAGAT | -0.0794 ± 0.027
79 | ACGTTAGT | -0.0518 ± 0.04
80 | CCCCTTCA | -0.236 ± 0.03
81 | GTTCGGAA | -0.052 ± 0.074
82 | GGCTAGGA | -0.184 ± 0.03
83 | ACTGACTC | -0.00199 ± 0.0047
84 | GATCCATA | -0.332 ± 0.032
85 | GAACGCCA | 0.0259 ± 0.069
86 | ACCCGGTA | -0.0268 ± 0.0011
87 | TGCTTGAA | -0.172 ± 0.088
88 | CTGAGGTC | -0.0761 ± 0.022
89 | CAAGTGAC | 0.325 ± 0.021
90 | CTGGGTTA | -0.119 ± 0.027
91 | GAGGTTCC | -0.156 ± 0.0053
92 | CCTCTTGC | 0.0502 ± 0.011
93 | AAAGCTAT | -0.204 ± 0.025
94 | CATAGAGC | -0.00675 ± 0.012
95 | AATGCACC | 0.0196 ± 0.12
96 | CTGGAAGC | -0.212 ± 0.051
97 | AATTAACC | -0.187 ± 0.072
98 | ATACGACA | 0.174 ± 0.071
99 | ATAAGAAT | 0.0516 ± 0.12
100 | AAAGGCCA | -0.118 ± 0.038

Row | Sequence | PBM E-score of 8-mer
101 | AGCAACGC | 0.173 ± 0.041
102 | ACATTACA | -0.0558 ± 0.034
103 | ACCAGTAA | -0.14 ± 0.018
104 | GGCCTCAC | 0.00634 ± 0.045
105 | AAACTGTG | 0.207 ± 0.013
106 | GATGACAA | 0.202 ± 0.017
107 | AGGCGCTC | -0.0321 ± 0.061
108 | GCGAACAC | 0.319 ± 0.013
109 | CCTTGCAG | -0.0559 ± 0.093
110 | TAACTCAA | -0.209 ± 0.0068
111 | ATCTGCTG | 0.0577 ± 0.084
112 | ATATGCGA | 0.106 ± 0.023
113 | CCAGGGGC | -0.0978 ± 0.12
114 | CTCCCCCA | -0.0388 ± 0.04
115 | CTCACCTC | 0.449 ± 0.009
116 | CCTCGGGC | 0.0293 ± 0.059
117 | CCACATTA | 0.126 ± 0.0023
118 | ACGGAGGA | -0.11 ± 0.055
119 | CGCGAGTA | 0.281 ± 0.0075
120 | AACGACGG | -0.0314 ± 0.013
121 | CATTGTGA | 0.12 ± 0.045
122 | CTAGTCGA | 0.146 ± 0.032
123 | ACCAGACA | -0.0847 ± 0.055
124 | GACCATGA | -0.209 ± 0.053
125 | CTGAACCA | -0.0413 ± 0.037

Row | Sequence | PBM E-score of 8-mer
126 | TGAATCCA | -0.14 ± 0.054
127 | CAACGAGC | -0.0764 ± 0.048
128 | AATCGTGC | 0.184 ± 0.035
129 | GTCCAAAA | -0.155 ± 0.015
130 | AAAAAGTC | -0.216 ± 0.059
131 | AACGACAT | 0.0687 ± 0.0068
132 | TGCAGACA | -0.0393 ± 0.082
133 | AAGGCTGC | -0.0964 ± 0.003
134 | CTTTCAGA | -0.0421 ± 0.042
135 | CGACGGCG | 0.135 ± 0.045
136 | ACTTACCT | 0.125 ± 0.053
137 | CGCCAATA | 0.153 ± 0.015
138 | AATGCCTA | -0.00871 ± 0.019
139 | GAAGTAAA | -0.2785 ± 0.001
140 | AGTGAGAC | 0.251 ± 0.023
141 | TCATGGGA | -0.216 ± 0.025
142 | CTAGGCGC | 0.128 ± 0.0018
143 | CTATACCA | -0.205 ± 0.013
144 | CGAGTCAG | -0.0412 ± 0.051
145 | AACTTGAT | -0.215 ± 0.015
146 | GGACGTAC | -0.215 ± 0.011
147 | AGTAGTAT | -0.133 ± 0.021
148 | ACAGCAGC | 0.0435 ± 0.039
149 | CACTCCAG | 0.156 ± 0.04
150 | CAGCTGAG | 0.0178 ± 0.036

Row | Sequence | PBM E-score of 8-mer
151 | CATTTCTC | 0.198 ± 0.05
152 | TGAGAAAA | 0.271 ± 0.098
153 | GCACTGCC | -0.0126 ± 0.026
154 | AACCCCCA | -0.166 ± 0.035
155 | AAACCGAT | -0.0542 ± 0.0059
156 | CAGCGGCC | -0.149 ± 0.076
157 | GCGGCTCA | -0.0885 ± 0.072
158 | CGTTATAG | -0.153 ± 0.018
159 | ATGTGGTG | 0.186 ± 0.013
160 | ACAACAGA | -0.0956 ± 0.033
161 | ACATATCG | 0.0131 ± 0.017
162 | TACCCGAA | -0.218 ± 0.025
163 | CGCACCTA | 0.422 ± 0.0048
164 | CGTACTTC | -0.1764 ± 0.00051
165 | ATAGGCAG | -0.223 ± 0.014
166 | GAGGTTCA | -0.0519 ± 0.054
167 | AACTTATC | 0.0676 ± 0.1
168 | ATCACCCC | 0.289 ± 0.028
169 | AGCCCAGA | -0.0817 ± 0.013
170 | CCTAGCCG | -0.0395 ± 0.018
171 | CTAAAAAC | -0.109 ± 0.062
172 | GCGCGTCC | 0.0283 ± 0.0097
